Results reported in PubChem BioAssay AID588855 (National Center for Advancing Translational Sciences (NCATS), 2011).
Values joined by “and” are separate entries in the source; they are usually repeats but may differ in a detail not shown here. Equal entries are not always repeated. In all, about 410,000 compounds went through this assay and about 5,000 (1.2%) were called active. Inconclusive means that the source gave no clear call. Such entries were picked first, then a sample of the others. Calls come from the whole dose curve; as a rule, active = well fitted inhibition curve with a large enough effect; inconclusive = small, poorly fitted or top-dose-only effect; inactive = no such curve, though single readings can be large or run the other way. A potency beside an inconclusive call is a rough fit, not a confirmed value.

test: qHTS for Inhibitors of TGF-b; conditions: HepG2 CAGA-GFP TGF-b/SMAD3 reporter, GFP fluorescence, 18 h, TGF-beta stimulated, 500 pg/mL final; series mostly up to 46.1 µM; activity, negative = inhibition: at the top concentration; note: nearly all actives have a fitted effect of over 65% in size
Summary of the method: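 HEPG2 CAGA-GFP, 1000 cells/well; 2 h settle, 37 C; cpd via pin tool; TGF-b 500 pg/mL final; 18 h, 37 C; GFP imaging ex488/em500-530; %Activity normalised to -TGF-b and +DMSO controls; CRC fit, curve class.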
% is set by controls: 0 for no effect and ±100 for the full control effect; potency is the fitted concentration of half-maximal effect; tags give direction and shape of the fitted curve.

Row | SMILES | Potency | activity, negative = inhibition
1 | OC(c1cc(F)cc(Cl)c1)c1ncc(-c2ccccc2Cl)[nH]1 (stereo not drawn) | inconclusive: 35.5 µM [inhibitor, single point] | –
2 | CCOC(=O)c1c(NC(=O)c2ccc(S(=O)(=O)N3CCC(C)CC3)cc2)sc2c1CCN(CC)C2 | – | inactive: 49.1%
3 | Cc1cc(C)cc(C(O)c2ncc(-c3cccc(C(F)(F)F)c3)[nH]2)c1 (stereo not drawn) | inconclusive: 22.4 µM [inhibitor, single point] | –
4 | COc1cccc(CC(=O)Nc2ccc(S(=O)(=O)Nc3nccs3)cc2)c1 | inconclusive: 35.5 µM [inhibitor, single point] | –
5 | C=Cc1ccc(Cn2nc(-c3ccc(C)cc3)ccc2=O)cc1 | inconclusive: 20 µM [inhibitor, single point] and inconclusive: 35.5 µM [inhibitor, single point] | –
6 | CCOC(=O)c1cc(C)n(CC2CCC(C(=O)Nc3cccc(C)c3)CC2)c1C (stereo not drawn) | inconclusive: 0.891 µM [inhibitor, full curve, poor fit] | –
7 | O=[N+]([O-])c1cccnc1N/N=C/c1ccccc1O | – | inactive: 5.06%
8 | O=C(Nc1ccc(C(F)(F)F)cc1Cl)c1ccc(Cn2cc(Br)cn2)o1 | inconclusive: 11.2 µM [inhibitor, partial curve, poor fit] | –
9 | Cc1ccc(S(=O)(=O)Cc2ccc(C(=O)NCCc3ccc(Cl)cc3)o2)cc1 | inconclusive: 17.8 µM [inhibitor, single point] | –
10 | CCOC(=O)CC1(NC(=O)C2CCC(=O)N(Cc3ccccc3F)C2)CCCCC1 (stereo not drawn) | – | inactive: -3.58%
11 | CCOc1ccc(-c2nc(SCC(=O)c3ccccc3)n[nH]2)cc1 | inconclusive: 11.2 µM [inhibitor, single point] | –
12 | Cc1ccccc1NC(=O)c1ccc([N+](=O)[O-])o1 | active: 15.8 µM | –
13 | Brc1ccc(CNc2ccc3ncccc3c2)cc1 | inconclusive: 7.08 µM [inhibitor, partial curve] | –
14 | CC(=O)/C(=C/c1ccccc1)C(=O)Nc1ccccc1C | active: 12.6 µM | –
15 | COc1ccc(-c2noc(N(c3cccc(Cl)c3)c3nc(-c4ccc(OC)c(OC)c4)no3)n2)cc1OC | inconclusive: 14.1 µM [inhibitor, single point] | –
16 | CCOc1cccc(C(=O)N2CCC(c3nc4ccccc4s3)CC2)c1 | inconclusive: 7.94 µM [inhibitor, partial curve, poor fit] | –
17 | O=C(c1ccc(Br)cc1)N1CCN(CCc2ccncc2)CC1 | – | inactive: 2.22%
18 | COc1cccc2c(O)cc(=O)n(C)c12 | inconclusive: 1.12 µM [inhibitor, full curve] | –
19 | CCC(=O)Nc1cccc(C(=O)/C=C/c2ccccc2)c1 | inconclusive: 12.6 µM [inhibitor, partial curve, poor fit] | –
20 | O=c1c2ccccc2oc2cc(NCCCN3CCOCC3)ccc12 | inconclusive: 0.282 µM [inhibitor, full curve, poor fit] | –
21 | Cc1ccc(S(=O)(=O)N2CCCCC2)cc1NC(=O)COC(=O)CN1C(=O)NC2(CC(C)CC(C)(C)C2)C1=O (stereo not drawn) | – | inactive: 5.54%
22 | O=c1c2ccccc2nc(-c2ccco2)n1CCc1ccc(O)cc1 | – | inactive: 13.1%

Row | SMILES | Potency | activity, negative = inhibition
23 | Cc1[nH]n(C)c(=O)c1C(=O)c1c(-c2ccccc2Cl)noc1C | inconclusive: 12.6 µM [inhibitor, partial curve] | –
24 | OCC1(CCOc2ccccc2)CCN(Cc2ccccc2C(F)(F)F)CC1 | inconclusive: 22.4 µM [inhibitor, single point] | –
25 | Cn1c(=S)n(/N=C/c2cccs2)c2ccccc21 | inconclusive: 35.5 µM [inhibitor, single point] | –
26 | CCOC(=O)c1c(-c2ccc(F)cc2)csc1/N=C/N(C)C | – | inactive: 14.7%
27 | COc1cccc(C2c3c(-c4ccccc4O)n[nH]c3C(=O)N2Cc2ccco2)c1 (stereo not drawn) | inconclusive: 20 µM [inhibitor, single point] | –
28 | CCc1ccc(CN2CCc3nc(Nc4ccccc4)ncc3C2)cc1 | inconclusive: 25.1 µM [inhibitor, single point] | –
29 | Cc1cccc2sc(N(Cc3cccnc3)C(=O)c3cccs3)nc12 | – | inactive: -7.89%
30 | COc1ccccc1CCNC(=O)c1cc(COc2cccc(C(F)(F)F)c2)on1 | inconclusive: 31.6 µM [inhibitor, single point] | –
31 | Cc1onc(-c2ccccc2)c1C(=O)NNC(=S)NC(=O)/C=C/c1ccccc1 | inconclusive: 22.4 µM [inhibitor, single point] | –
32 | CCc1ccccc1Nc1nn2c(=O)c3ccc(C(=O)NC(C)c4ccccc4)cc3nc2s1 (stereo not drawn) | – | inactive: 6.52%
33 | CCc1ccc(NC(=O)CC2C(=O)N(c3ccc(Cl)cc3)C(=O)N2Cc2ccco2)cc1 (stereo not drawn) | inconclusive: 35.5 µM [inhibitor, single point] | –
34 | CCS(=O)(=O)Nc1cccc(C2=NN(S(C)(=O)=O)C(c3ccccc3)C2)c1 (stereo not drawn) | inconclusive: 5.62 µM [inhibitor, single point] | –
35 | CCn1c(SCC(=O)N/N=C/C=C/c2ccco2)nc2ccccc21 | inconclusive: 35.5 µM [inhibitor, single point] | –
36 | COc1ccccc1NC(=O)c1sc2nc(C)c(C(=O)Nc3ccc(C)cc3C)c(-c3cccs3)c2c1N | – | inactive: 29.8%
37 | CCCCCC1CC(=O)NC1(C(=O)OCC)C(=O)OCC (stereo not drawn) | – | inactive: -11.5%
38 | COc1cc(-c2nc(-c3ccccc3)c(-c3cccs3)[nH]2)cc(OC)c1OC | – | inactive: 7.28%
39 | CCOC(=O)CCCSc1nc(-c2ccc3c(c2)OCO3)cc(C(F)(F)F)c1C#N | inconclusive: 0.891 µM [inhibitor, full curve] | –
40 | CN(C)/C=N/c1c(C#N)cnn1-c1ncnc2sc(-c3ccccc3)cc12 | inconclusive: 0.708 µM [inhibitor, partial curve, poor fit] | –
41 | O=C(Nc1ccc(OC(F)(F)F)cc1)c1ccc2c(c1)no[n+]2[O-] | inconclusive: 14.1 µM [inhibitor, partial curve] | –
42 | COc1ccc(C(=O)Oc2cccc(Nc3ncnc4ccccc34)c2)cc1OC | – | inactive: -2.16%
43 | C[C@H](CO)N1C[C@H](C)[C@H](CN(C)Cc2cccc(O)c2)OCc2ccccc2-c2c(n(C)c3ccccc23)C1=O | inconclusive: 22.4 µM [inhibitor, single point] | –
